# Laboratory results taken from PubChem BioAssay AID2546 (National Center for Advancing Translational Sciences (NCATS), 2010).
# The whole screen tested about 310,000 compounds, of which about 11,000 (3.5%) were called active. The shares of active, inactive and inconclusive entries below differ from those in the screen. Calls follow the shape of the dose curve; as a rule, active = well fitted inhibition curve with a large enough effect; inconclusive = small, poorly fitted or top-dose-only effect, or effect the other way; inactive = flat fitted curve, though single readings scatter. Potencies of inconclusive entries are left out as doubtful fits.
# Experiment: VP16 counterscreen qHTS for inhibitors of ROR gamma transcriptional activity;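 also: Gal4-VP16 expression switched on by copper sulfate through the metallothionein promoter; nearly all actives have a fitted effect of over 50% in size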
# Conditions: Drosophila S2 Gal4-VP16 UAS-luciferase, luminescence, 20 h; activity, negative = inhibition: at 53.6 µM (top of the series)
# From the text: NIH Molecular Libraries Probe Production Network [MLPCN]
# NIH Chemical Genomics Center [NCGC]
# Assay Provider: Dan Littman, New York University
# The retinoic acid-related orphan receptor (ROR) gamma is a transcription factor that has a central role in the differentiation of Th17 cells, a subset of T helper cells that secrete the inflammatory cytokines IL-17, IL-17F, and IL-22. Th17 cells have been implicated in graft versus host disease, autoimmune disease and asthma. ROR gamma is induced in naive T helper cells in the presence of TGF-beta combined with IL-6, IL-21, or IL-23, and thereafter directs the expression of the Th17 lineage cytokines. To identify nonspecific inhibitors, a Drosophila Schneider cell line was stably transfected with two vectors: a gene expressing a fusion of the Gal4 DNA binding domain and VP16 transactivation domain under the control of the metallothionine promoter and a Photinus luciferase reporter regulated by the Gal4 binding site enhancer, UAS. […] Small molecule inhibitors that inhibit components common to the RORgt and VP16 assays, such as the Gal4 DNA binding domain or the UAS luciferase reporter, will be active in both assays and thus scored as nonspecific.
# For screening, 600 cells in 4 uL/well were dispensed into white solid 1536-well plates (Grenier) using a solenoid-based dispenser. Following transfer of 23 nL compound or DMSO vehicle by a pin tool, the plates were incubated 1 hr at ambient temperature, and 1 uL/well copper sulfate (700 uM final concentration) was added. The plates were centrifuged 15 s at 1000 RPM and incubated 20 hr at ambient temperature. After addition of 1.5 uL Photinus luciferase detection reagent, the plates were incubated 10 min at ambient temperature and then read by a ViewLux (Perkin Elmer) to detect luminescence.
# % is scaled to controls: 0 for no effect and ±100 for the full control effect; potency is read from the fitted curve at half-maximal effect; tags tell the direction and shape of the fitted curve.
SMILES,"activity, negative = inhibition",Potency
COc1ccc(NC(=O)C(CCSC)NC(N)=O)cc1Cl (centres undefined),inactive: 2.78%,–
Fc1ccc(NC(=S)N2CCc3ccccc3C2)c(F)c1,–,"inconclusive [inhibitor, single point]"
Cc1cccc(/C=N/n2c(COc3ccccc3)n[nH]c2=S)c1,–,"inconclusive [inhibitor, partial curve, poor fit]"
Cc1ccc(C(=O)N/N=C(/CC(=O)c2cccs2)C(F)(F)F)cc1,–,active: 7.08 µM
O=C(Nc1cccc2ccccc12)N1CCN(c2ncccn2)CC1,–,"inconclusive [inhibitor, single point]"
CCc1ccc(-c2cc(C)no2)cc1S(=O)(=O)NCc1ccco1,–,"inconclusive [inhibitor, single point]"
CCc1cccc(NC(=O)Cc2ccc(OC)c(OC)c2)c1,–,"inconclusive [inhibitor, single point]"
COc1ccc(C(=O)Nc2cc([N+](=O)[O-])ccc2N2CCN(C)CC2)cc1,inactive: 2.66%,–
COc1cc(OC)cc(-c2nc3ccccc3c(=O)n2OC(=O)c2ccc(Br)cc2)c1,–,active: 11.2 µM
N#CC(C#N)=C1C(=O)N(CCN2CCOCC2)c2ccccc21,–,"inconclusive [inhibitor, single point]"
CC(c1n[nH]c(=S)n1Cc1ccccc1)N(C)C (centres undefined),–,"inconclusive [inhibitor, single point]"
Nc1c(C(=O)c2ccc(Cl)cc2)sc2nc3c(cc12)CCC3,–,"inconclusive [activator, full curve, poor fit]"
CN(C)c1ccc(/C=C2\SC(N3CCCCC3)=NC2=O)cc1,–,"inconclusive [inhibitor, single point]"
O=C(c1ccccc1)N1CC(COc2ccccc2)OC(c2ccco2)O1 (centres undefined),–,"inconclusive [inhibitor, partial curve]"
CN(Cc1ccccc1)c1ncnc(N)c1[N+](=O)[O-],–,"inconclusive [activator, single point]"
O=C(Nc1nccs1)c1ccc(Cl)c(S(=O)(=O)N2CCOCC2)c1,–,"inconclusive [inhibitor, single point]"
CN(C)N1C(N)=C(C#N)C(c2ccc3c(c2)OCO3)C2=C1CCCC2=O (centres undefined),inactive: 6.09%,–
Cc1ccc(-c2nnc3n2N=C(c2ccc(Br)cc2)CS3)cc1,inactive: 1.13%,–
O=C(Nc1ncn[nH]1)c1ccc(Cl)c(S(=O)(=O)Nc2ccc(Cl)cc2)c1,–,"inconclusive [inhibitor, single point]"
Cc1cc(C)n2[nH]c(=O)c(N=Nc3cccc(C(F)(F)F)c3)c2n1,–,"inconclusive [inhibitor, single point]"
COc1ccc(C(NC(C)=O)c2ccc3cccnc3c2O)c(OC)c1 (centres undefined),–,active: 4.47 µM
CCn1cc(C2=NC(CC(C)C)CO2)c2ccccc21 (centres undefined),–,"inconclusive [inhibitor, single point]"
O=C(O)/C=C/C(=O)Nc1ccc(-c2ccccc2)cc1,–,inactive
CC(=O)Nc1ccc(C(=O)NCCc2ccccc2)cc1,–,"inconclusive [activator, single point]"
O=C(C1COc2ccccc2O1)N1CCN(c2ccccc2Cl)CC1 (centres undefined),–,"inconclusive [activator, partial curve]"

SMILES,"activity, negative = inhibition",Potency
COc1cc(/C=C2\SC(=S)N(NC(=O)c3ccccc3OC)C2=O)ccc1O,inactive: 2.58%,–
CCOC(=O)CCNC(=O)N1CCCC(Cc2ccccc2)(C(=O)OCC)C1 (centres undefined),inactive: -4.87%,–
O=C1OC(O)C(C(Cl)Cl)=C1Cl (centres undefined),–,active: 2.82 µM
C/C(N)=C(/C#N)C(=O)CSc1nc2cc(Cl)ccc2s1,–,"inconclusive [inhibitor, single point]"
Cc1cc(C(=O)CN2CC(C)OC(C)C2)c(C)n1-c1ccccc1 (centres undefined),–,"inconclusive [activator, single point]"
Cn1c(SCc2ccc(Br)cc2)nc2c(c1=O)SCC2,–,"inconclusive [inhibitor, single point]"
CCOc1ccc(NC(=S)NC23CC4CC(CC(C4)C2)C3)cc1,–,active: 2.82 µM
O=C(NCc1ccc(F)cc1)c1cc(C(=O)C2CC2)c[nH]1,–,"inconclusive [inhibitor, single point]"
Cn1cnnc1SCC(=O)NC1CCCN(Cc2ccc(Cl)cc2)C1 (centres undefined),inactive: 8.05%,–
Cc1c(NC=C(C#N)C#N)c(=O)n(-c2ccccc2)n1C,inactive: 2.07%,–
COc1cccc(Oc2ccc(N/C=C/C(=O)C(C)(C)C)cc2)c1,–,"inconclusive [inhibitor, single point]"
CN(C)S(=O)(=O)N1CCC(Oc2ccc(C(=O)N3CCCCCCC3)cc2)CC1,–,"inconclusive [inhibitor, single point]"
COc1ccc(CNc2ncnc3sccc23)cc1OC,–,active: 11.2 µM
Cc1ccc(C(O)c2nc3ccccc3n2C(C)C)cc1 (centres undefined),inactive: -8.71%,–
CCOC(=O)c1ccc(NC(=S)NCCc2ccccc2)cc1,–,"inconclusive [inhibitor, single point]"
COc1ccc(Oc2ncc3nc(-c4ccc(Cl)cc4)c(=O)n(CCC#N)c3n2)cc1,–,"inconclusive [inhibitor, partial curve]"
CC1=CC(=O)[C@@H]2C[C@H]1C2(C)C,inactive: -5.3%,–
C=CCn1c(C)cc(C(=O)COC(=O)c2ccc(N)c([N+](=O)[O-])c2)c1C,–,"inconclusive [inhibitor, single point]"
Nc1nnc(SCc2ccc(F)cc2Cl)s1,–,"inconclusive [inhibitor, single point]"
Cc1cc(C)nc(/N=C2\NC(=O)CC(C(=O)O)N2c2ccc(C)c(C)c2)n1 (centres undefined),inactive: -7.12%,–
Cc1ccc(/C=C/C(=O)c2ccccc(=O)c2O)c(C)c1,–,"inconclusive [inhibitor, single point]"
CCCNC(=O)c1ccc(-c2nc3ccccc3s2)s1,–,"inconclusive [inhibitor, single point]"
Brc1ccccc1OCCCCn1cnc2ccccc21,–,"inconclusive [inhibitor, single point]"
COc1ccc(NC(=O)c2nc[nH]c2C(=O)N(C)Cc2ccccc2)cc1,–,"inconclusive [inhibitor, single point]"
CC(=O)c1ccc(NC(=O)CCCN2C(=O)/C(=C/C(C)=C/c3ccccc3)SC2=S)cc1,–,"inconclusive [inhibitor, single point]"

SMILES,"activity, negative = inhibition",Potency
O=[N+]([O-])c1ccc(C2CC(c3ccccc3)=Nc3ccccc3S2)cc1 (centres undefined),–,"inconclusive [inhibitor, single point]"
CCCCCc1ccc(OCCCC[n+]2cccc(C)c2)c(CCCCC)c1,inactive: -6.87%,–
Cc1ccc(Cn2cnc3c(cnn3C(C)(C)C)c2=O)cc1,–,"inconclusive [inhibitor, single point]"
NC(=O)CC(NC(=O)c1cccc(Br)c1)c1ccc(N2CCC(Br)CC2)c([N+](=O)[O-])c1 (centres undefined),–,"inconclusive [inhibitor, single point]"
Cc1cc(NCCCn2ccnc2)n2nc(-c3ccc(F)cc3)cc2n1,inactive: -10.2%,–
CCc1ccc2oc(-c3ccc(OC)cc3)cc(=Nc3cccc(C(=O)O)c3)c2c1,–,active: 11.2 µM
CN(C)C=Nc1ccc2nc3c(cc2c1)[nH]c1ccccc13,–,"inconclusive [inhibitor, single point]"
Cc1ccc(-c2csc(NC(=O)C3=COCCO3)n2)cc1,–,"inconclusive [activator, single point]"
CCOC(=O)C1=C(C)N(c2ccc(C)cc2)C(=O)/C1=C\c1ccc(O)c(OC)c1,–,"inconclusive [inhibitor, single point]"
CC(C)(C)c1nc(NCCN2CCOCC2)c2nnn(Cc3ccccc3Cl)c2n1,–,"inconclusive [inhibitor, single point]"
N=C1C(c2ccccc2)=C(O)CN1c1cccc(S(=O)(=O)N2CCOCC2)c1,inactive: -4.01%,–
CC(=O)NC(=S)Nc1ccccc1F,–,"inconclusive [inhibitor, single point]"
CCOc1cccc(/C=N/NC(=O)c2ccc3c(c2)OCCO3)c1O,–,active: 0.631 µM
Cc1cccc(NC(=S)NCC23C=CC(O2)C2C(=O)N(c4ccc(Cl)cc4)C(=O)C23)c1 (centres undefined),–,"inconclusive [inhibitor, single point]"
Cc1cccc(N(C)c2cc(C)nc3nc(C)nn23)c1,inactive: 0.756%,–
CCOC(=O)c1cnc2c(C)cc(Cl)cc2c1N1CCN(C)CC1,inactive: 1.61%,–
OCC(CO)(CO)N=Cc1cc(Br)ccc1O,inactive: -4%,–
N#CCSc1n[nH]c2nc3c(c(=O)n12)C1(CCCCC1)Cc1ccccc1-3,inactive: 7.79%,–
O=C(COC(=O)c1ccc(Br)cc1)NCCC1=CCCCC1,inactive: -2.57%,–
CC1CCC(C(C)C)C(=O)/C1=C\c1ccc(NC(=O)CCC(=O)O)cc1 (centres undefined),–,"inconclusive [inhibitor, single point]"
S=C(NCCCN1CCOCC1)Nc1ccc(Cl)cc1Cl,inactive: -3.14%,–
Fc1cc(F)c2nc(Nc3nc4cc5c(cc4s3)OCO5)sc2c1,–,"inconclusive [inhibitor, single point]"
CCn1ccnc1CN1CCCCC1C(=O)Nc1ccc(Oc2cccnc2)cc1 (centres undefined),–,"inconclusive [inhibitor, single point]"
O=C(Nc1nc(-c2cccs2)cs1)c1ccc(Cl)s1,–,"inconclusive [inhibitor, partial curve, poor fit]"
